Measurements reported in a melting point compilation (Tetko et al.; mined from patent text by program, amines drawn as free bases though some values may be those of a salt).

Compound CN1c2ccc(-c3ccc4ccccc4c3)cc2S(=O)c2cc(-c3ccc4ccccc4c3)ccc21 has a melting point of 275 to 280 °C.
